The values that follow come from article PMC12391319.

Protein sequences, listed by entry. Tags and fused reporters are not part of them.
UniProt Q14145: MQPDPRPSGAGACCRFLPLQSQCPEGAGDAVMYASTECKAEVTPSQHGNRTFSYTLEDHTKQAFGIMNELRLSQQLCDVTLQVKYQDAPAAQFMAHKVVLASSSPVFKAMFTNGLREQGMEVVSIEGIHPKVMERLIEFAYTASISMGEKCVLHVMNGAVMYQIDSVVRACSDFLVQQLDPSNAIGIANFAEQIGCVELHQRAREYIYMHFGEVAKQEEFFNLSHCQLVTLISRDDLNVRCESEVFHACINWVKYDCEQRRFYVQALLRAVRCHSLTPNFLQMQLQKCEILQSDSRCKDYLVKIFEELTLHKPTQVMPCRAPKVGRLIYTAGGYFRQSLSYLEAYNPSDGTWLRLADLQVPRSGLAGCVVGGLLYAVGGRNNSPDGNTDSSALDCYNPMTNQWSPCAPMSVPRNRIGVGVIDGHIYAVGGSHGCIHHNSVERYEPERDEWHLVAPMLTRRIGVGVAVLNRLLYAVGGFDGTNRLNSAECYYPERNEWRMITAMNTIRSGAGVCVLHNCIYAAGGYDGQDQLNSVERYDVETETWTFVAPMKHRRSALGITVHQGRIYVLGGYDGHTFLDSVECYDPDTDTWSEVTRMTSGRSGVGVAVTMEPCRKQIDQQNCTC
UniProt Q9Z2X8: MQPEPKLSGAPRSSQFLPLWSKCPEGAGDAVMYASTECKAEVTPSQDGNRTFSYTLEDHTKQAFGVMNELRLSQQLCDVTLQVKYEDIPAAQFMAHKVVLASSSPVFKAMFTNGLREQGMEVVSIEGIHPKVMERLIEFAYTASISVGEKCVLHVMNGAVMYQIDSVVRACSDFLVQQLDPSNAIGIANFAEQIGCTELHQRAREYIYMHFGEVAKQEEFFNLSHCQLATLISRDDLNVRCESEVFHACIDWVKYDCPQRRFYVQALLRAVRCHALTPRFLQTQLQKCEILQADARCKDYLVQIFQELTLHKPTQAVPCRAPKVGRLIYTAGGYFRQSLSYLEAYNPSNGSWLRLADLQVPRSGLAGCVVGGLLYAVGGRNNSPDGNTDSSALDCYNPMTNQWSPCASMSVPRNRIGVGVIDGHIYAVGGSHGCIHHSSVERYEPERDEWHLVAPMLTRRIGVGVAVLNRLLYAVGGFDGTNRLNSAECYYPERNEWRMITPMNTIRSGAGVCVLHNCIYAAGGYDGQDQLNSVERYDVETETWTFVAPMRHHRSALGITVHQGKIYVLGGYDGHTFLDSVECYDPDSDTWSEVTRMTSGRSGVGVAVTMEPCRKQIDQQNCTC

These are yes or no findings as the source states them, for the method shown. In cells and extracts the contact can be indirect. Some binding calls cover weakened binding; strength is not graded here. For part of these data: Where a sequence is shown, tags or fusion partners need not be part of it.

The target in assay [1] is T1, FLAG-IRGM-D2 (position 32–181) (human) (UniProt A1A4Y4).
T1 sequence: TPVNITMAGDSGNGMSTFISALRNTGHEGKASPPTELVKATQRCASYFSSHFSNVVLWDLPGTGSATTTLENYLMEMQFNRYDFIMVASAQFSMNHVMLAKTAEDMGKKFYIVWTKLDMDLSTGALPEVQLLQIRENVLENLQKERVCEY
As to the kind of experiment: co-IP; HEK293T transiently transfected for 48 h with FLAG-IRGM (full-length, D1 or D2) and HA-KEAP1; IP with anti-FLAG or anti-HA, WB.

Assay [2] concerns the target T2, FLAG-IRGM-D1 (position 1–31) (human) (UniProt A1A4Y4).
T2 sequence: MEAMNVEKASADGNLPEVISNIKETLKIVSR
The description is as above.

Assay [3] concerns the target T3, FLAG-IRGM (human IRGM, full-length) (human) (UniProt A1A4Y4).
T3 sequence: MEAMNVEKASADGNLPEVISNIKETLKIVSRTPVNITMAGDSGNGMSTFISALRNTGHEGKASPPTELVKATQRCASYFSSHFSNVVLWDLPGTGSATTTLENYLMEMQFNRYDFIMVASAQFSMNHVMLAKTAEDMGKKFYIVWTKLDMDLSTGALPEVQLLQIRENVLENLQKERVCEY
The description is as above.

Assay [4] deals with HA-KEAP1 (human KEAP1) (human) (UniProt Q14145). The description is as above.
In assay [5] the target is kelch-like ECH-associated protein 1 (Keap1), in RAW264.7 cells (mouse) (UniProt Q9Z2X8). As to the kind of experiment: co-IP; extracts of RAW264.7 cells overexpressing Irgm1 or Keap1; Irgm1 or Keap1 immunoprecipitated (antibody overnight at 4 °C, protein A/G), precipitates analysed by WB; also Keap1 precipitates from sh-Irgm1 or oe-Irgm1 cells treated with 5 μM MG132 and 40 ng/ml RANKL for 6 h (less Usp25 with Keap1 in Irgm1-deficient cells).

Assay [6] has as its target T4, Immunity-related GTPase family M member 1 (Irgm1), in RAW264.7 cells (mouse) (UniProt Q60766).
T4 sequence: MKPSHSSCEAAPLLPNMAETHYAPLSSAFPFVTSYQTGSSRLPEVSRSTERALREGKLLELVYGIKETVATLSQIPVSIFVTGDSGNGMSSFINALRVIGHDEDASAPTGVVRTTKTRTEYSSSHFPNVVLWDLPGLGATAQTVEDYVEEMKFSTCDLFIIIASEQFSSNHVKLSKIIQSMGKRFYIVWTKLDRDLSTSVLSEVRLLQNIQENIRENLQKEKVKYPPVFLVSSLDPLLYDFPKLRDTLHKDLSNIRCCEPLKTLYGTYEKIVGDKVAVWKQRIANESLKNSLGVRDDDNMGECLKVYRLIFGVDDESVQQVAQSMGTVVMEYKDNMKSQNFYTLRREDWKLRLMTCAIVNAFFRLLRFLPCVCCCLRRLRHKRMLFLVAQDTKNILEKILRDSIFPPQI
Described as above.

For the molecule “HA-KEAP1 (human KEAP1) (from UniProt Q14145 1-624)”, the binding result in assay [1] is reported as “binds”; in assay [2], “no binding”; in assay [3], “binds”.
“Usp25, in HEK293T cells (from UniProt Q9UHP3 1-1055) (enzyme)”: the binding result in assay [3] and in assay [4] was “binds” each time.

B1: Immunity-related GTPase family M member 1 (Irgm1), in RAW264.7 cells (protein, UniProt Q60766 1-409)
chain: T4 sequence
As to B1, the binding result in assay [5] was “binds”.

B2: FLAG-IRGM (human IRGM, full-length) (protein, UniProt A1A4Y4 1-181)
chain: T3 sequence
On to B2, for which the binding entry in assay [4] is “binds”.

B3: Usp25, in RAW264.7 cells (enzyme, UniProt P57080 1-1055)
chain: MTVEQNVLQQSAAQKHQQTFLNQLREITGINDAQILQQALKDSNGNLELAVAFLTAKNAKTPPQEETGYYQTALPGNDRYISVGSQADANVIDLTGDDKDDLQRAIALSLAESNRAFRETGITDEEQAISRVLEASIAENKACLKRTPIEVWRDSRNPYDRKRQEKAPVGLKNVGNTCWFSAVIQSLFNLLEFRRLVLNYKPPSNAQDLPRNQKEHRNLPFMRELRYLFALLVGTKRKYVDPSRAVEILKDAFKSNDSQQQDVSEFTHKLLDWLEDAFQMKAEEETDEEKPKNPMVELFYGRFLAMGVLEGKKFENTEMFGQYPLQVNGFKDLHECLEAAMIEGEIESLHSDNSGKSGQEHWFTELPPVLTFELSRFEFNQALGRPEKIHNKLEFPQVLYLDRYMHRNREITRIKREEIKRLKDYLTVLQQRLERYLSYGSGPKRFPLVDVLQYALEFASSKPVCTSPVDDIDASSSASGPLPSQSLPSTTEQQGPCASDLPGSSSPASGAALPLRSVIHKPFTQSRIPPDLPMHPAPRHITEEELCVLESCLHRWRTEIENDTRDLQESISRIHRTIELMYSDKSMIQVPYRLHAVLVHEGQANAGHYWAYIFDHRESRWMKYNDIAVTKSSWEELVRDSFGGYRNASAYCLMYIDDKAQFLIQEEFNKETGQALVGMETLPPDLRDFVEEDNQRFEKELEEWDTQLAQRSLQEKLLAAPKLREAEASATTAQAGGADYLEQPSRSDLSKHWKEETLRVIAKASHDLEDKGPETVLQSAIKLEYSRLVKLAQEDTPPETDYRLHHVLVYFIQNQAPKKIIEKTLLEQFGDRNLSFDERCHNIMKVAQAKLEMIKPEEVNLEEYEEWHADYKKFRETTMYLITGLENFQRESYIDSLLFLLCAYQNNKELLSKGPYRGHDGELISHYRRECLLKLNEQAAELFESGEDGDVNNGLIIMNEFIVPFLPLLLVDDMEEKDILAVEDMRNRWCSYLGQEMEANLQEKLTDFLPKLLDCSTEIKGFHEPPKLPSYSAHELCERFARIMLSLSRTPADGR
As for B3, the binding entry in assay [5] and in assay [6] was “binds” each time.
